# Measured values published in article PMC4336329 (PLoS ONE, 2015).
# Out of some 310,000 compounds screened, about 2,200 (0.71%) showed an effect of 50% or more. The effect is printed as a negative number. The list shows a part of the results.
# Biological target: human ether-à-go-go-related gene (hERG) potassium channel (human, UniProt Q12809)
# Test: primary screen, population patch clamp on CHO cells stably expressing hERG
# Sequence of human ether-à-go-go-related gene (hERG) potassium channel (Q12809 whole entry, looked up): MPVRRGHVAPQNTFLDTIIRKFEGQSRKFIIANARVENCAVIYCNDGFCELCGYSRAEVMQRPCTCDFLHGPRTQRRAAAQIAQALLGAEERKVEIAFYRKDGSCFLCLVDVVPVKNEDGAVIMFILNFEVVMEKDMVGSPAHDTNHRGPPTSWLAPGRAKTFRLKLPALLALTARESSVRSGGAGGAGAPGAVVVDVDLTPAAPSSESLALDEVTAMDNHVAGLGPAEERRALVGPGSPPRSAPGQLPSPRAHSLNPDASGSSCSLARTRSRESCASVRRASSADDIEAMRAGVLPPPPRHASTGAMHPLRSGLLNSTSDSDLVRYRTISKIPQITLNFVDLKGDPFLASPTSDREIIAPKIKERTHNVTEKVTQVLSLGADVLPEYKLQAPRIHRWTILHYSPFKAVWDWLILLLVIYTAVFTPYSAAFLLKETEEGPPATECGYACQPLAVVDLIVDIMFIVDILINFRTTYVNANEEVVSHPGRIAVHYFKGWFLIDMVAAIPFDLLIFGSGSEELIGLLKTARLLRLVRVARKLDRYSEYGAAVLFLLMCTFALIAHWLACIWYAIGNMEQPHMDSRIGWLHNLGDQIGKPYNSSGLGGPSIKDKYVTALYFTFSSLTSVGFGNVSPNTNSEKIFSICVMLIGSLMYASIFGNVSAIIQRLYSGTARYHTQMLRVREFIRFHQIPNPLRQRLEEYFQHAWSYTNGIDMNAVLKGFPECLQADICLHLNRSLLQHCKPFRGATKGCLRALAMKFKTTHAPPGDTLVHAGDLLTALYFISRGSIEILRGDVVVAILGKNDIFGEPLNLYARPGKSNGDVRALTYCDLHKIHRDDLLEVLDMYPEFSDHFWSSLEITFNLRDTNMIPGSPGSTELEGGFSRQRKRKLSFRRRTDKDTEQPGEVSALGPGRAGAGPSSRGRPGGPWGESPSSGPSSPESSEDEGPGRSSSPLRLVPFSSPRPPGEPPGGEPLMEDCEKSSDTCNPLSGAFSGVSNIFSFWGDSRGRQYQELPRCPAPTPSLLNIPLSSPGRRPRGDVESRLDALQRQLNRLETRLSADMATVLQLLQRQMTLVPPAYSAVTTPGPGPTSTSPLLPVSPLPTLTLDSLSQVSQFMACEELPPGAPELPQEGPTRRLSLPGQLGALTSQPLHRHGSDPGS
row,Compound,"hERG current change (%, negative = inhibition) at 1uM [%]"
1,CC(NC(=O)C1C(=O)N(CCO)C2(C)CC1c1ccccc1O2)c1ccccc1 (stereo not drawn),-4.93
2,Cc1ccc(NC(=S)NNC(=O)c2ccc(N3CCOCC3)c([N+](=O)[O-])c2)cc1Cl,4.56
3,CCN(CC)CCCn1c2c(c(SCC(=O)Nc3cccc(C(C)=O)c3)nc1=O)CCC2,-14.9
4,CC(=O)C12CC(C)=C(C)CC1CC1C3CCC4=CC(=O)CCC4(C)C3CCC12C (stereo not drawn),11.1
5,N#Cc1c(NCCN)nc(-c2ccco2)c2c1CCCC2,-6.44
6,Cc1nc2ncnn2c(C)c1CCC(=O)N1CCN(C(=O)c2ccco2)CC1,4.74
7,Cc1ccc2cc(C(c3nnnn3Cc3ccccc3)N3CCN(c4ccccc4)CC3)c(=O)[nH]c2c1 (stereo not drawn),0.344
8,COc1ccc(NC(=O)CN2C(=O)CC(C)S(=O)(=O)c3ccccc32)cc1 (stereo not drawn),9.84
9,CCOC(=O)c1[nH]c(C)c(C(=O)OCC(=O)N(C)C2CCS(=O)(=O)C2)c1C (stereo not drawn),19.2
10,Cn1nc(C(F)(F)F)c(-c2cccc(C(F)(F)F)c2)c1NC(=O)c1ccco1,-3.7
11,CCCn1nnc(NC(=S)NC(=O)CC)n1,5.36
12,COc1ccc2ncc(OC(C)=O)cc2c1,14.4
13,O=C(NCc1nnc(SCC(=O)N2CCCC2)o1)c1ccccc1,17.4
14,COc1cccc(CNC(=O)COC(=O)CNC(=O)c2ccc(-c3ccccc3)cc2)c1,12.4
15,CC(C)Cc1nnc(NC(=O)c2ccc(N3CCCC3=O)cc2)s1,12.3
16,COP(=O)(OC)C(Nc1ccc(C)cc1)c1ccc([N+](=O)[O-])cc1 (stereo not drawn),6.97
17,CCCN(CC(=O)Nc1ccccc1OC)Cc1c(O)ccc2ccccc12,11.9
18,COc1cc(C(=O)Nc2cc(C(F)(F)F)ccc2N2CCOCC2)ccc1O,4.25
19,COc1cc(C(=O)NCC(=O)n2nc(C)cc2C)cc(OC)c1OC,9.66
20,CS(=O)(=O)N1N=C(c2ccc3nccnc3c2)CC1c1ccccc1 (stereo not drawn),-13
21,COc1cc(Cl)c(C)cc1NC(=O)CSc1sc2c(O)cc(=O)[nH]c2c1C#N,18.7
22,Cc1cc(C)c(C(N)=O)c(SCC(=O)c2ccc(Cl)cc2)n1,-2.4

row,Compound,"hERG current change (%, negative = inhibition) at 1uM [%]"
1,CCCc1[nH]nc2c1C(c1c(C)nn(-c3ccccc3)c1Cl)C(C#N)=C(N)O2 (stereo not drawn),6.11
2,Cc1ccc(C(=O)N2CCn3c(C)ccc3C2C)cc1 (stereo not drawn),1.48
3,O=C(COC(=O)c1ccccc1SCC(=O)N1CCCC1)NC1CCS(=O)(=O)C1 (stereo not drawn),8.67
4,C=CCSC1=C(C#N)C(c2ccccc2OC)CC(=O)N1 (stereo not drawn),4.18
5,O=C(Nc1ccccc1)c1cc2ccccc2o1,8.25
6,NC(=O)C1CC(=O)N(c2ccc(OCC(=O)NCc3ccccc3)cc2)C1 (stereo not drawn),11.3
7,COc1ccc(C(=O)CC(=O)C(=O)NCCc2cccc(C)c2)cc1,6.12
8,Cc1cc(NC(=O)CSc2nc3ccccc3n2CC(C)C)no1,16.1
9,CC(C)C(=O)NC(NC(=S)Nc1ccc(S(N)(=O)=O)cc1)C(Cl)(Cl)Cl (stereo not drawn),12.7
10,Cc1ccc(-n2nnnc2SCc2nc3sc(C)c(C)c3c(=O)[nH]2)cc1,-4.72
11,CCCc1ccc(-c2cc(C(=O)Nc3ccc([N+](=O)[O-])cn3)c3ccccc3n2)cc1,5.79
12,CCN(C(=O)COC(=O)CNC(=O)c1cccc(C)c1)c1c(N)n(Cc2ccccc2)c(=O)[nH]c1=O,15.3
13,COc1cccc(/C=N/NC(=O)c2cc3c(OC)ccc(OC)c3[nH]2)c1O,20.1
14,Cc1cc(N)n2nc(C(F)(F)F)nc2n1,14.4
15,O=C(N/N=C/c1ccc(Cl)cc1)C(=O)N1CCCCCC1,14.7
16,C[C@H](NC(=O)c1nc[nH]c1C(=O)N1CCN(c2ccccc2)CC1)C(=O)OC(C)(C)C,11.7
17,COc1ccc2c(c1)CC(C)C/C2=N\NC(=O)c1ccco1 (stereo not drawn),18.5
18,CCCCCCC(=O)N(O)C1CC(=O)N(Cc2ccccc2)C1=O (stereo not drawn),3.36
19,Cc1ccc(OC(=O)c2ccc(S(=O)(=O)N(C)C)cc2)c(-n2nc3ccccc3n2)c1,2.42
20,O=C(OCN1C(=O)c2ccccc2C1=O)c1ccc(Cl)nc1,6.97
21,Cc1cc(=O)[nH]c(N/N=C/c2sccc2C)n1,5.05
22,O=C(CN(Cc1ccccc1Cl)C(=O)c1csnn1)NCCc1ccccc1,7.11

row,Compound,"hERG current change (%, negative = inhibition) at 1uM [%]"
1,CCCCNC(=O)COC(=O)c1cc(S(=O)(=O)N2CCCCCC2)ccc1OC,-8.75
2,c1ccc(OCCOc2ncnc3ccccc23)cc1,11.4
3,CC(C)NC(=O)CCCC(=O)NC(C)C,14.6
4,COc1cccc(CNC(=O)CSC(=S)N2CCCC2)c1,18.2
5,O=C(CSc1nnc(CCCN2C(=O)c3cccc4cccc(c34)C2=O)n1-c1ccccc1)NCCCN1CCOCC1,2.25
6,Cc1ccc(S(=O)(=O)N2CCC(C(=O)OCC(=O)N(C)CC(=O)Nc3ccc(F)cc3)CC2)cc1C,5.88
7,COCCN1C(=O)C(=O)/C(=C(/O)c2ccc(S(=O)(=O)N3CCOCC3)cc2)C1c1ccc(OC)c(OC)c1 (stereo not drawn),10.6
8,CC(C)CCNC(=O)C(=O)Nc1ccccc1,-2.37
9,COc1ccccc1N1C(=O)S/C(=C\c2ccc(C)s2)C1=O,17.7
10,COc1ccc2c(C)c(CC(=O)N3C[C@H]4C[C@@H](C3)c3cccc(=O)n3C4)c(=O)oc2c1OC,4.86
11,S=c1[nH]cc(-c2ccccc2)[nH]1,12.3
12,CC(=O)CSc1nnc(-c2ccco2)n1-c1ccccc1,12
13,Cn1cccc1/C=C1/SC(=O)N(CC(=O)N2CCCC2)C1=O,9.51
14,COc1ccc(-c2nc(C#N)c(NCc3ccco3)o2)cc1,11.8
15,COc1cc(C)ccc1OCCOc1cc(C)ccc1Cl,10.6
16,Cc1ccccc1NC(=S)NC(NC(=O)N(C)C)C(Cl)(Cl)Cl (stereo not drawn),11.9
17,CN(C1CCCCC1)S(=O)(=O)c1ccc(C(=O)Nc2sc3c(c2C(N)=O)CC(C)(C)NC3(C)C)cc1,10.7
18,CCOc1ccc2nc3c(cc2c1)CN(CCCO)C(=NCCOC)S3,12
19,C=CCSc1nc2c(C(=O)OCC)nnn2c2ccccc12,8.5
20,CC(OC(=O)c1cccc(-n2cnnn2)c1)C(=O)NCc1ccccc1 (stereo not drawn),4.25
21,CCOc1ccc(Oc2ccc(C(F)(F)F)cc2NC(=O)C2=COCCO2)cc1,9.87
22,COCCNC(=O)Cc1c(C)c2cc3c(cc2oc1=O)OC(C)(C)CC3,11

row,Compound,"hERG current change (%, negative = inhibition) at 1uM [%]"
1,CCCc1nnc(NC(=O)c2ccc(N3C(=O)C4C5C=CC(C5)C4C3=O)cc2)s1 (stereo not drawn),10.3
2,CCc1ccc(NC(=O)Cn2nnc(C(=O)NCCc3ccc(OC)c(OC)c3)c2N)cc1,9.58
3,Cc1occc1C(=O)N(C)CC1CCCN(CCc2ccccc2F)C1 (stereo not drawn),-11.3
4,COc1ccccc1N1CCN(C(=O)c2ccc(CS(=O)(=O)c3ccccc3OC)o2)CC1,4.7
5,C/C(=N/O)c1no[n+]([O-])c1/C(C)=N\O,4.36
6,O=C(CS(=O)(=O)c1cn(CC(=O)N2CCCC2)c2ccccc12)Nc1ccccc1,8.7
7,O=C(NCc1ccccn1)c1n[nH]c2ccccc12,18.3
8,O=C(NCc1ccccc1)C12CN(Cc3ccccc3)CC1C(c1ccc([N+](=O)[O-])cc1)=NO2 (stereo not drawn),-31.7
9,COc1cccc(NC(=O)CN2C(=O)CSc3ccc(S(=O)(=O)N4CCC(C)CC4)cc32)c1,13
10,CCOC(=O)c1ccc(NC(=O)Cn2nc(C)c3ccccc3c2=O)cc1,17.3
11,COc1cc(SC)ccc1C(=O)N1CCN(Cc2ccccc2)CC1,-29.2
12,COc1cc(NC(=O)CCC(=O)OCCCC(F)(F)C(F)(F)F)nc(OC)n1,10.8
13,COc1cc(Br)cc(CN2CCN(C)CC2)c1O,1.77
14,O=C(Nc1nc(-c2ccccc2)cs1)c1ccccc1NS(=O)(=O)c1ccc(F)cc1,14.4
15,CSc1cccc(NS(=O)(=O)c2ccc(C(C)=O)cc2)c1,-7
16,COc1ccc(CC(=O)Nc2nnc(C(C)(C)C)s2)cc1OC,5.69
17,CCN(C(=O)CN1C(=S)NC(C)(C)CC1C)c1ccc(C)c(C)c1 (stereo not drawn),9.5
18,COC(=O)c1ccc(Cn2cnc3ccccc3c2=O)cc1,-15.5
19,Cc1c(NC(=O)CSc2ncccn2)c(=O)n(-c2ccccc2)n1C,15
20,COc1cccc(CCNCc2cccc(C(F)(F)F)c2)c1.O=C(O)C(=O)O,14.4
21,Cc1nn(CC(=O)NCc2cccc(F)c2)c(=O)c2cccn12,21.2
